# From the supplement of paper PMC4967469
# Compound: COc1ncc(-c2ccc3nccc(-c4ccnnc4)c3c2)cc1NS(=O)(=O)c1ccc(F)cc1F [GSK2126458]
# Assay: Viability of human cancer cell lines after 72 h of drug (GDSC screen)
# Settings: top dose inferred
# Protocol: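 Human cancer cell lines in 384-well plates, medium with 10% serum, drug for 72 h over a 256-fold dose range (nine 2-fold or five 4-fold steps up to the top dose). Adherent lines were fixed and stained with the nucleic acid dye Syto60, suspension lines read with resazurin; signal relative to control wells, capped at 0 and 100%. One two-parameter sigmoid per drug and line, fitted in a mixed model over all curves with the slope shared within a line.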
Cell Line,AUC,pIC50
"HuP-T4 (pancreas, adherent, top dose 0.128 µM)",0.654,7.66
"IA-LM (large cell lung carcinoma, adherent, top dose 0.128 µM)",0.784,7.21
"IGR-1 (melanoma, adherent, top dose 0.128 µM)",0.85,7.10
"IGR-37 (melanoma, adherent, top dose 0.128 µM)",0.827,7.16
"IHH-4 (thyroid, semi-adherent, top dose 0.128 µM)",0.896,6.99
"IM-95 (stomach, adherent, top dose 0.128 µM)",0.48,8.15
"IMR-5 (neuroblastoma, adherent, top dose 0.128 µM)",0.914,< 6.89
"IPC-298 (melanoma, adherent, top dose 0.128 µM)",0.75,7.38
"IST-MEL1 (melanoma, adherent, top dose 0.128 µM)",0.612,7.76
"IST-MES1 (mesothelioma, adherent, top dose 0.128 µM)",0.956,< 6.89
"IST-SL1 (small cell lung carcinoma, semi-adherent, top dose 0.128 µM)",0.831,7.08
"IST-SL2 (small cell lung carcinoma, suspension, top dose 0.128 µM)",0.62,7.77
"J82 (bladder, adherent, top dose 0.128 µM)",0.885,< 6.89
"JAR (urogenital system, adherent, top dose 0.128 µM)",0.85,7.03
"JEG-3 (urogenital system, adherent, top dose 0.128 µM)",0.989,< 6.89
"JHH-1 (liver, adherent, top dose 0.128 µM)",0.377,8.45
"JHH-2 (liver, adherent, top dose 0.128 µM)",0.737,7.39
"JHH-4 (liver, adherent, top dose 0.128 µM)",0.944,< 6.89
"JHH-6 (liver, adherent, top dose 0.128 µM)",0.986,< 6.89
"JHH-7 (liver, adherent, top dose 0.128 µM)",0.903,< 6.89
"JHOS-2 (ovary, adherent, top dose 0.128 µM)",0.944,< 6.89
"JHOS-3 (ovary, adherent, top dose 0.128 µM)",0.808,7.05
"JHU-011 (head and neck, adherent, top dose 0.128 µM)",0.646,7.69
"JHU-022 (head and neck, adherent, top dose 0.128 µM)",0.751,7.28
"JIMT-1 (breast, adherent, top dose 0.128 µM)",0.726,7.43
"JJN-3 (haematopoietic neoplasm, suspension, top dose 0.128 µM)",0.63,7.77
"JM1 (B-cell lymphoma, suspension, top dose 0.128 µM)",0.803,7.28

Cell Line,AUC,pIC50
"JSC-1 (B-cell lymphoma, suspension, top dose 0.128 µM)",0.665,7.64
"JURL-MK1 (chronic myeloid leukaemia, suspension, top dose 0.128 µM)",0.867,6.94
"JVM-2 (lymphoid neoplasm, suspension, top dose 0.128 µM)",0.895,< 6.89
"JVM-3 (lymphoid neoplasm, suspension, top dose 0.128 µM)",0.907,< 6.89
"JiyoyeP-2003 (Burkitt lymphoma, suspension, top dose 0.128 µM)",0.869,7.02
"K2 (melanoma, adherent, top dose 0.128 µM)",0.817,7.00
"K5 (thyroid, adherent, top dose 0.128 µM)",0.659,7.66
"KALS-1 (glioma, adherent, top dose 0.128 µM)",0.666,7.56
"KARPAS-45 (lymphoblastic leukaemia, suspension, top dose 1.024 µM)",0.211,7.96
"KARPAS-231 (B-cell leukaemia, suspension, top dose 0.128 µM)",0.146,9.02
"KARPAS-299 (anaplastic large cell lymphoma, suspension, top dose 0.128 µM)",0.877,7.04
"KARPAS-422 (B-cell lymphoma, suspension, top dose 0.128 µM)",0.436,8.27
"KARPAS-620 (haematopoietic neoplasm, suspension, top dose 0.128 µM)",0.494,8.11
"KASUMI-1 (acute myeloid leukaemia, suspension, top dose 0.128 µM)",0.173,9.09
"KCL-22 (chronic myeloid leukaemia, suspension, top dose 0.128 µM)",0.564,7.94
"KE-37 (lymphoblastic leukaemia, suspension, top dose 1.024 µM)",0.247,7.82
"KELLY (neuroblastoma, adherent, top dose 0.128 µM)",0.81,7.22
"KG-1 (acute myeloid leukaemia, suspension, top dose 0.128 µM)",0.643,7.72
"KGN (ovary, adherent, top dose 0.128 µM)",0.437,8.28
"KINGS-1 (glioma, adherent, top dose 0.128 µM)",0.759,7.21
"KLE (endometrium, adherent, top dose 0.128 µM)",0.769,7.11
"KM12 (large intestine, adherent, top dose 1.024 µM)",0.674,6.69
"KM-H2 (Hodgkin lymphoma, suspension, top dose 0.128 µM)",0.804,7.28
"KMH-2 (thyroid, adherent, top dose 0.128 µM)",0.6,7.84
"KMOE-2 (acute myeloid leukaemia, suspension, top dose 0.128 µM)",0.413,8.32
"KMRC-1 (kidney, adherent, top dose 0.128 µM)",0.975,< 6.89
"KMRC-20 (kidney, adherent, top dose 0.128 µM)",0.966,< 6.89

Cell Line,AUC,pIC50
"KMS-11 (myeloma, suspension, top dose 0.128 µM)",0.911,< 6.89
"KMS-12-BM (myeloma, suspension, top dose 0.128 µM)",0.44,8.25
"KNS-42 (glioma, adherent, top dose 0.128 µM)",0.893,< 6.89
"KNS-81-FD (glioma, adherent, top dose 0.128 µM)",0.906,< 6.89
"KON (head and neck, adherent, top dose 0.128 µM)",0.97,< 6.89
"KOPN-8 (B-cell leukaemia, suspension, top dose 0.128 µM)",0.635,7.75
"KOSC-2 (head and neck, adherent, top dose 0.128 µM)",0.635,7.71
"KP-2 (pancreas, adherent, top dose 0.128 µM)",0.54,7.98
"KP-3 (pancreas, adherent, top dose 0.128 µM)",0.749,7.32
"KP-4 (pancreas, adherent, top dose 0.128 µM)",0.728,7.46
"KP-N-YN (neuroblastoma, adherent, top dose 0.128 µM)",0.9,< 6.89
"KP-N-YS (neuroblastoma, adherent, top dose 0.128 µM)",0.801,7.13
"KS-1 (glioma, adherent, top dose 0.128 µM)",0.496,8.11
"KU812 (chronic myeloid leukaemia, suspension, top dose 0.128 µM)",0.304,8.62
"KU-19-19 (bladder, adherent, top dose 0.128 µM)",0.961,< 6.89
"KURAMOCHI (ovary, adherent, top dose 0.128 µM)",0.609,7.78
"KY821 (leukaemia, suspension, top dose 0.128 µM)",0.882,6.97
"KYAE-1 (oesophagus, suspension, top dose 0.128 µM)",0.31,8.66
"KYM-1 (rhabdomyosarcoma, adherent, top dose 0.128 µM)",0.884,6.98
"KYSE-50 (oesophagus, adherent, top dose 0.128 µM)",0.398,8.37
"KYSE-70 (oesophagus, adherent, top dose 0.128 µM)",0.886,< 6.89
"KYSE-140 (oesophagus, adherent, top dose 0.128 µM)",0.739,7.37
"KYSE-150 (oesophagus, adherent, top dose 0.128 µM)",0.833,7.11
"KYSE-180 (oesophagus, adherent, top dose 0.128 µM)",0.867,6.97
"KYSE-220 (oesophagus, adherent, top dose 0.128 µM)",0.441,8.26

# pIC50: −log10 of the molar value. Lines with a small IC50 respond at low doses; a limit (>, <) means that the fit lies beyond the doses tested. The AUC spans the tested range (256-fold, ending at the top dose) of the same fit; it is 1 without any effect and falls as sensitivity rises. A top dose marked as inferred was derived from the fitted curves, not read from the paper.
